PubChem BioAssay AID463173 (ICCB-Longwood Screening Facility, Harvard Medical School, 2010)
Among all 52,000 compounds or so, about 1,700 (3.3%) were called active. Rule as the data show it: active = survival mostly below about 52% (no sharp cut-off); inactive = mostly above about 56%. This is one part of the list.

Tested on: Wild type
Experiment: growth inhibition of S. aureus wild type versus tarO mutant, primary screen, teichoic acid synthesis inhibitors, RN4220, OD600 (AID 463173)
Details: S. aureus RN4220 wild type/DeltatarO growth, OD600, 18 h, stronger effect = lower value, screened at 18.75 µg/mL (by protocol)

Compound	survival
CCc1ccc(NC(=O)C2CCCN2S(=O)(=O)c2ccc3c(c2)n(C)c(=O)c(=O)n3C)cc1 (stereo not given)	inactive: 72%
COc1ccccc1CNC(=O)CN(C)c1nn2c(=O)cc(C)nc2s1	inactive: 90%
COc1cc(CN2CCN(C(=O)c3cccc4ccccc34)CC2)cc(OC)c1OC	inactive: 106%
COc1ccccc1NC(=O)CCC(=O)N1CC(C)Oc2ccc(C)cc21 (stereo not given)	inactive: 85%
Cc1cc(=O)c2cc(C(=O)Nc3ccc(C)c(C)c3)ccc2[nH]1	inactive: 87%
Oc1ccc(CNc2ccccc2C(F)(F)F)c2cccnc12	inactive: 49%
Cc1ccc(CNC(=O)C2CCN(S(=O)(=O)c3cccc4nonc34)CC2)cc1	inactive: 85%
COc1ccccc1NC(=O)CSc1nnc(NC(=O)NC2CCCCC2)s1	inactive: 84%
Cc1nn(-c2ccccc2)c2c1cc1c(=O)[nH]c(=O)nc-1n2-c1cccc(Cl)c1	inactive: 73%
COc1ccccc1/C=C/c1nc(C#N)c(N2CCN(C)CC2)o1	inactive: 98%
O=C(Nc1ccccc1)NC1CCN(CCCN2C(=O)c3ccccc3C2=O)CC1	inactive: 122%
CCc1ccc(NCc2cc3cc4c(cc3n(CC(=O)Nc3ccccc3OC)c2=O)OCCO4)cc1	inactive: 68%
Cc1cc(NC(=O)Nc2nnc(N(C)C3CCCCC3)s2)ccc1Br	inactive: 82%
COc1ccc(C(=O)N2CCC(c3nc4ccccc4s3)CC2)cc1Cl	inactive: 84%
Cc1ccc2oc(C(=O)Nc3ccc(S(=O)(=O)N(C)c4ccccc4)cc3)cc(=O)c2c1	inactive: 108%
O=C(NC1CCN(C(=O)Nc2cccc(F)c2)CC1)c1ccco1	inactive: 96%
Cc1cccc(NC(=O)Cn2ncc3c4ccccc4n(Cc4ccccc4)c3c2=O)c1C	inactive: 89%
Cc1ccc(S(=O)(=O)CCC(=O)Nc2ccc(OC(F)(F)F)cc2)cc1	inactive: 71%
CCC(Sc1nc2ccncc2[nH]1)C(=O)Nc1cc(Cl)ccc1C (stereo not given)	inactive: 126%
COc1cc(Cl)c(C)cc1NC(=O)CSc1nc2c(c(=O)[nH]1)CCC2	inactive: 79%
O=C(c1ccc2c(c1)N(Cc1ccccc1F)C(=O)c1ccccc1S2(=O)=O)N1CCc2ccccc21	inactive: 91%
CCc1ccccc1NC(=O)Cn1c(=O)n(CCCCCC(=O)NCc2ccc(C)cc2)c(=O)c2sccc21	inactive: 89%
FC(F)(F)c1cccc(-n2nnnc2-c2ccccc2)c1	inactive: 101%
CCOC(=O)c1cccc(NC(=O)CC2C(=O)N(c3ccc(Cl)cc3)C(=O)N2C2CCCC2)c1 (stereo not given)	inactive: 85%
CCc1ccc(S(=O)(=O)c2nnn3c2nc(N2CCOCC2)c2sccc23)cc1	inactive: 88%
CS(=O)(=O)N1CCC(c2nc(-c3ccc(S(=O)(=O)NCC4CCCO4)cc3)no2)CC1 (stereo not given)	inactive: 113%
Cc1ccc(N2CC(c3nc(-c4ccc(Cl)cc4)no3)CC2=O)cc1F (stereo not given)	inactive: 73%
Cc1cc(N2CCC(C(=O)Nc3ccc(F)cc3C)CC2)n2nc(C)c(-c3ccc(Cl)cc3)c2n1	inactive: 77%

Compound	survival
O=C(NCCc1ccc(Cl)cc1)c1ccco1	inactive: 104%
Cc1cc(Br)ccc1NC(=O)C1CCCN(S(=O)(=O)c2cccc3nonc23)C1 (stereo not given)	inactive: 96%
CCc1cccc(CC)c1NC(=O)C1CCC(CNS(=O)(=O)c2cccc3nsnc23)CC1 (stereo not given)	inactive: 65%
COc1ccc2cc3cc(C(=O)Nc4cc(C)c(Cl)cc4OC)oc3nc2c1	inactive: 88%
COc1cc(Cl)c(NC(=O)c2cc(S(=O)(=O)N3CCCCC3)c[nH]2)c(OC)c1	inactive: 123%
Cc1sc2c(c1C)c(=O)n(-c1ccc(Cl)cc1)c(=O)n2Cc1cc(=O)n2cc(Br)ccc2n1	inactive: 73%
COc1ccc(NC(=O)CSc2oc(-c3ccc(F)cc3)nc2S(=O)(=O)c2ccc(C)cc2)c(OC)c1	inactive: 68%
CC(=O)c1cccc(NS(=O)(=O)c2cc(-c3onc(C)c3C)ccc2C)c1	inactive: 84%
CCOC(=O)c1c(S(=O)(=O)N2CCCC(C(=O)NCc3ccccc3Cl)C2)c(C)n(C)c1C (stereo not given)	inactive: 127%
CCOc1ccccc1NC(=O)CSc1nc2c(sc3ccccc32)c(=O)n1CCCC(=O)NC1CCCC1	inactive: 90%
COc1cc(NC(=O)C2CCN(S(=O)(=O)c3ccc4c(c3)CCCC(=O)N4)CC2)cc(OC)c1	inactive: 67%
O=C(Nc1ccccc1)N(Cc1c[nH]c2ccccc12)C1CCCCCC1	inactive: 48%
CNC(=O)c1ccc(CN2CCc3ccccc3C2)cc1	inactive: 107%
COc1cccc(CNC(=O)c2ccc(CNS(=O)(=O)c3ccc(C)cc3)cc2)c1	inactive: 91%
CCN(c1ccccc1)S(=O)(=O)c1nnc(NC(=O)c2ccccc2)s1	inactive: 69%
Cc1cccc(N2CCN(C(=O)c3cnn(-c4ccccc4Cl)c3C3CCN(C(=O)OC(C)(C)C)CC3)CC2C)c1 (stereo not given)	inactive: 66%
COCCN1C(=O)C(=O)/C(=C(/O)c2ccccc2)C1c1ccccc1 (stereo not given)	inactive: 105%
Cc1cccc(OCc2nc(CC(=O)Nc3ccc(C)cc3C)cs2)c1	inactive: 91%
CC1CCc2c(sc3nnn(CCCCOc4ccc(Cl)cc4)c(=O)c23)C1 (stereo not given)	inactive: 119%
COc1ccc(CNCCCSc2nnnn2-c2ccccc2)cc1	inactive: 86%
COc1ccc(S(=O)(=O)NCCc2sc(-c3cccnc3)nc2C)c(F)c1	inactive: 75%
CCc1ccc(C2c3c(oc4ccc(F)cc4c3=O)C(=O)N2CCc2ccc(OC)cc2)cc1 (stereo not given)	inactive: 69%
CCN(CC)CCNC(=O)C(=O)NCC(c1cccnc1)N1CCN(c2ccc(F)cc2)CC1 (stereo not given)	inactive: 83%
O=C(Nc1ccccc1C(F)(F)F)c1cc(-c2ccc3c(c2)OCCO3)on1	inactive: 113%
Cc1ccc(CNC(=O)Cn2c(=O)ccc3cc(S(=O)(=O)N4CCC(C)CC4)ccc32)cc1	active: 10%
COc1ccc(-c2cc(C(=O)NC(C)c3ccccc3)c3cc(C(C)C)ccc3n2)cc1 (stereo not given)	inactive: 75%
CCOC(=O)c1c(NC(=O)c2cc(OCC)c(OCC)c(OCC)c2)sc2c1CCCCC2	inactive: 83%
